Structures are written as SMILES. Values joined by “and” are separate entries in the source; they are usually repeats but may differ in a detail not shown here. Equal entries are not always repeated. Among all 16,000 compounds or so, about 40 (0.2%) were called active. Another 1% or so got no clear call; they are omitted. Calls come from the whole dose curve; as a rule, active = well fitted activation curve with a large enough effect; inconclusive = small, poorly fitted or top-dose-only effect, or another doubt; inactive = no such curve, though single readings can be large or run the other way. The list shows a part of the results.
% is set by controls: 0 for no effect and ±100 for the full control effect.

This assay deals with Rap guanine nucleotide exchange factor 4 (Homo sapiens) (UniProt Q8WZA2). In words: Validation qHTS for agonist of cAMP-regulated guanine nucleotide exchange factor 4 (EPAC2).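 Note: exchange makes BODIPY-GDP fluorescence drop when released from Rap1B; series mostly up to about 150 µM.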 As to conditions: EPAC2 Rap1B BODIPY-GDP exchange, fluorescence; activation: stronger effect = higher value. The procedure, abridged: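 Signal normalized against 6.5 mM cAMP as agonist control. Mix of EPAC2 (100 nM), RAP1B-BODIPY-GDP (250 nM) and GDP (50 uM) was read kinetically at 480/540 nm, every 5 min over 30 min, after 5 min room-temperature incubation with compound.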
Chain of UniProt Q8WZA2 (Q8WZA2 whole entry, looked up): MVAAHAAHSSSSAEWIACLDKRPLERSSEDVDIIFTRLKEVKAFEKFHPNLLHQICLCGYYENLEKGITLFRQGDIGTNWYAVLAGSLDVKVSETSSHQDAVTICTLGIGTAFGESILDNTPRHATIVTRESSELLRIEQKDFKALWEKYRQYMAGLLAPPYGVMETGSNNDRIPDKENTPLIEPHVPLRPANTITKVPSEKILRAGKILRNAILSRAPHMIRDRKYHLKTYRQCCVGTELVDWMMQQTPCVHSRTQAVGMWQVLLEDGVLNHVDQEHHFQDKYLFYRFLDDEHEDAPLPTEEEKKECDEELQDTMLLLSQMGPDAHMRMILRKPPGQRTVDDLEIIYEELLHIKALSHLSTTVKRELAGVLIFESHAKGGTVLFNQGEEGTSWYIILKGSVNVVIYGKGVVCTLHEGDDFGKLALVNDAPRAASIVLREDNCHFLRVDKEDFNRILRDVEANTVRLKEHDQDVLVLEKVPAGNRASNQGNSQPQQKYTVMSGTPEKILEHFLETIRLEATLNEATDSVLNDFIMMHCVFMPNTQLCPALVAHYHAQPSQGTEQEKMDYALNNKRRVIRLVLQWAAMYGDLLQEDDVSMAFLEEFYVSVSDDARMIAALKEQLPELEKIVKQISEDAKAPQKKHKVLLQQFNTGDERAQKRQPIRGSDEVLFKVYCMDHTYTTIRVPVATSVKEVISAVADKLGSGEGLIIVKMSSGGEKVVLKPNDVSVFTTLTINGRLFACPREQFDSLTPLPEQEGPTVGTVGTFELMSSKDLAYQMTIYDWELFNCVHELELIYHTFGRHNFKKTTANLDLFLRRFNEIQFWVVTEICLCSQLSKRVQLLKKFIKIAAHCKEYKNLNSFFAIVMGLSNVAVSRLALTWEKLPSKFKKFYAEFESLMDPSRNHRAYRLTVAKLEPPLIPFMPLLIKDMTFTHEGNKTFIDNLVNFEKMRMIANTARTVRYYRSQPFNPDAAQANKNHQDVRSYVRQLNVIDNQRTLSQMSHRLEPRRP
On the technique in general: Quantitative high-throughput screening tests each substance at several concentrations.
Take `CCOC(=O)C1=C(C)NC(C)=C(C(=O)OCC)C1c1c(F)c(F)c(F)c(F)c1F`: the activation was inactive: -97%.

In the case of `Cc1ccc2nc(CNC(=O)c3cc(NC(=O)c4ccccc4)cc4ncn(C5CCCC5)c34)cn2c1`, the activation was inactive: 1.85%.

`Cn1cccc1C(=O)N1CCC2(CC1)CN(C(=O)Nc1cccc(F)c1)C2`: the activation was inactive: 2.21%.

In the case of `COCCn1c(=O)cnc2cnc(OC)nc21`, the activation was inactive: 3.62%.

For the compound `C[C@@H](CCCCC(=O)Nc1ccc(C(F)(F)F)cc1)NCCc1cnc[nH]1`, the activation is inactive: -5.3%.

Turning to `O=C(c1ccc2c(c1)OCO2)N(Cc1cc2cc3c(cc2nc1N1CCOCC1)CCC3)CC1CCCO1` (stereo unspecified), the activation is inactive: -15%.

For `CN(C)CCN(Cc1cccs1)c1ccccn1`, the activation is inactive: -17.7% and inactive: -24.2%.

`COCCn1c(=O)c(-c2cccc(C#N)c2)nc2cnc(N3CCNCC3)nc21`: the activation was inactive: -13.4%.

In the case of `Cc1ccc(-c2nn(CC(C)(C)C)c3ncnc(N)c23)cc1`, the activation was inactive: -9.47%.

On to `COc1ncc2nc(-c3ccc(F)cc3)c(=O)n(C3CC3)c2n1`, for which the activation is inactive: -2.76%.

Take `CCOC(=O)C1OC1C(=O)NC(CC(C)C)C(=O)NCCC(C)C` (stereo unspecified): the activation is inactive: -3.6%.

Regarding `CC(C)C(=O)NCC1CCC2(CCN(Cc3ccc(-c4cccc(Cl)c4)o3)CC2)O1` (stereo unspecified), the activation was inactive: -1.83%.

For the compound `NC(CO)(CO)CO`, the activation is inactive: -3.44%.

As to `CCn1c(-c2cccc(OC)c2)nc2cc(NC(C)=O)cc(C(=O)N(C)CC3COCCO3)c21` (stereo unspecified), the activation was inactive: -1.51%.

As to `CCC(Oc1ccccc1)C(=O)N[C@@H]1C(=O)N2[C@@H]1SC(C)(C)[C@@H]2C(=O)O` (stereo partly specified), the activation was inactive: -24.5%.

For `O=S(=O)(c1ccccc1)N1CCC2(CCCN(Cc3ccccc3)C2)CC1`, the activation was inactive: 1.68%.

For `CN(C)Cc1ccccc1-c1ccc2ncnc(NCc3cccs3)c2c1`, the activation was inactive: -7.25%.

`COc1ccc(Oc2ncc3ncc(=O)n(C)c3n2)cc1`: the activation is inactive: 5.1%.

For `COc1ccc2c(c1)OCc1c-2oc2cc(OC)ccc12`, the activation was inactive: 5.89%.

For `COc1ccc(C(=O)NCC2Cc3c(F)ccc(-c4nc(C)cnc4C)c3O2)cc1F` (stereo unspecified), the activation was inactive: -11.4%.

Take `COc1c(O[C@@H]2O[C@H](CO)[C@@H](O)[C@H](O)[C@H]2O)cc2c(c1OC)-c1ccc(SC)c(=O)cc1[C@@H](NC(C)=O)CC2`: the activation was inactive: 2.85%.

For the compound `Cn1cccc1C(=O)N1CCC2(CCCN(c3ccncc3)C2)CC1`, the activation is inactive: -6.44%.

As to `CC(=O)N1CCC2(CC1)CN(c1cccc(-c3ccccc3)c1)C2`, the activation is inactive: -1.09%.

As for `CCCN[C@H]1CCc2nc(N)sc2C1`, the activation is inactive: -12.9%.

For `COc1ccc2c(c1)OC/C(=C/c1ccc(O)c(O)c1)C2=O`, the activation was inactive: 21.4%.

With `Cc1nc2cnc(Oc3ccccc3)nc2n(Cc2cccs2)c1=O`, the activation is inactive: 0.505%.

As for `C[n+]1ccc(C(c2c[nH]c3ccccc23)c2cc[n+](C)c3ccccc23)c2ccccc21`, the activation is inactive: 2.98%.

Turning to `CCC(=O)N1CCN(C(=O)c2ccccc2)CC1`, the activation was inactive: -17.3%.

With `Cc1cn2c(=O)c3ccccc3nc2n2c(=O)c3ccccc3nc12`, the activation is inactive: 1.2%.

As for `Cc1cc(CNC(=O)c2cnn(-c3nccc(-c4cc(C)sc4C)n3)c2C2CC2)on1`, the activation is inactive: 3.23%.

For the compound `CSc1nc(NC2CCCC2)c([N+](=O)[O-])c(NC2CCCC2)n1`, the activation is inactive: -15.6%.

On to `O=C(O)c1cccs1`, for which the activation is inactive: -13.4%.

Consider `CC(=O)C[C@H]1c2cc(C(F)(F)F)ccc2S(=O)(=O)N1C1CCCC1`, for which the activation is inactive: -17.6%.

Take `CCc1nc2cc(C(=O)NC3CCOC(C)(C)C3)cc(NC(=O)c3ccccc3OC)c2n1C` (stereo unspecified): the activation was inactive: 0.106%.

On to `Cn1cc(-c2nc3cncnc3n(-c3ccccc3)c2=O)c2ccccc21`, for which the activation is inactive: -151%.

On to `CCC(COC)NC(=O)c1cnn(-c2ncc3c(n2)-c2ccccc2CCC3)c1C` (stereo unspecified), for which the activation is inactive: 0.118%.

Turning to `Cc1nc2ccccc2n1Cc1ccc(Cl)cc1`, the activation was inactive: -17.9%.

As to `CN(C)c1ccc(-c2cncnc2N(C)Cc2ccco2)cc1`, the activation is inactive: 6.2%.

In the case of `COc1ccccc1-c1ccc2ncnc(Nc3ccccc3)c2c1`, the activation is inactive: -9.21%.

With `Cc1cc2c(c(-c3ccc(Cl)cc3)c1)OC(CNC(=O)CCC(=O)N(C)C)C2` (stereo unspecified), the activation is inactive: -28.1%.

As for `COc1ccc(NC(=O)/C=C/c2ccc(Cl)cc2)cc1`, the activation is inactive: 0.558%.

Regarding `CCCCCCCCCCCCCCCC(=O)OC[C@@H](COP(=O)([O-])OCC[N+](C)(C)C)OC(=O)CCCCCCCCCCCCCCC`, the activation was inactive: -14.7%.

With `C[C@@H](/C=C\c1cccc(Oc2ccc(F)cc2)c1)N(O)C(N)=O`, the activation was inactive: -36.1%.

On to `CNC(=O)c1cc2c(cn1)[nH]c1ccccc12`, for which the activation is inactive: -1.12% and inactive: -1.23% and inactive: -18.6%.

Regarding `Cc1cc(=O)oc2cc(O)ccc12`, the activation was inactive: -16.8%.

As for `COC(=O)C1CCCCN1Cc1ccc2c(c1)CN(C(=O)c1ccc(F)cc1)CCO2` (stereo unspecified), the activation is inactive: -1.05%.

Take `COc1ncc2nc(C)c(=O)n(C3CC3)c2n1`: the activation was inactive: 1.37%.

Consider `CCC1CN(CCNC(=O)c2cccc(C)n2)Cc2cc(OC)ccc2O1` (stereo unspecified), for which the activation was inactive: -4.15%.

In the case of `COc1cc(/C=C/C(=O)N2CCN(CC(=O)N3CCCC3)CC2)cc(OC)c1OC`, the activation is inactive: 7.62%.

`CCCCCCCCCCCCCCCCCCOP(=O)([O-])OC1CC[N+](C)(C)CC1`: the activation is inactive: -20.5%.

For the compound `CNc1ncnc2c1ncn2[C@H]1C[C@H](OP(=O)(O)O)[C@@H](COP(=O)(O)O)O1`, the activation is inactive: -13.8%.

As for `COc1ncc2nc(CCc3ccccc3)c(=O)n(CCC#N)c2n1`, the activation was inactive: -14.9%.

Take `Nc1ncn([C@@H]2O[C@H](CO)[C@@H](O)[C@H]2O)c(=O)n1`: the activation is inactive: -14.2% and inactive: -14.3%.

For the compound `CCCNC(C)C(=O)Nc1ccccc1C` (stereo unspecified), the activation was inactive: -7.01% and inactive: -13.3% and inactive: -13%.

For `CC(=O)Nc1ccc(-c2nc3ccc(Cl)cc3[nH]2)cc1`, the activation is inactive: -4.64%.

With `CCCCC[C@H](O)/C=C/[C@@H]1[C@@H](C/C=C\CCCC(=O)O)[C@@H](O)C[C@H]1O`, the activation is inactive: 2.31% and inactive: -3.33%.
